For 153 variants, enrichment ratio results are on record in a collection of fitness landscapes (doi:10.1126/science.1257360).

The other results are listed elsewhere or left out.

The chains are these.
B1: PhoQ; a variant is named by its letters at X, in order, P23837 (parent)
chain: MKKLLRLFFPLSLRVRFLLATAAVVLVLSLAYGMVALIGYSVSFDKTTFRLLRGESNLFYTLAKWENNKLHVELPENIDKQSPTMTLIYDENGQLLWAQRDVPWLMKMIQPDWLKSNGFHEIEADVNDTSLLLSGDHSIQQQLQEVREDDDDAEMTHSVAVNVYPATSRMPKLTIVVVDTIPVELKSSYMVWSWFIYVLSANLLLVIPLLWVAAWWSLRPIEALAKEVRELEEHNRELLNPATTRELTSLVRNLNRLLKSERERYDKYRTTLTDLTHSLKTPLXXLQXXLRSLRSEKMSVSDAEPVMLEQISRISQQIGYYLHRASMRGGTLLSRELHPVAPLLDNLTSALNKVYQRKGVNISLDISPEISFVGEQNDFVEVMGNVLDNACKYCLEFVEISARQTDEHLYIVVEDDGPGIPLSKREVIFDRGQRVDTLRPGQGVGLAVAREITEQYEGKIVAGESMLGGARMEVIFGRQHSAPKDE

In this test the parent is B1. The test can be described thus: enrichment ratio after two sorts for PhoP signalling (ratio (wild type AVST 3.29)); higher = more functional. The note with it: with PhoP (E. coli).
As to LNAI, the enrichment ratio is not above 0.25. As for MGFD, the figure is not above 0.25; as for KFDK, not above 0.25. As for IILH, the figure is not above 0.25; as for YGAY, not above 0.25. As for LFRP, the figure is not above 0.25. HQST: the enrichment ratio is not above 0.25. As for HWDM, the figure is not above 0.25; as for VSAN, not above 0.25.

Consider YWML, for which the enrichment ratio was not above 0.25. As for YIIG, the figure is not above 0.25; as for YFHP, not above 0.25; as for NHRR, not above 0.25.

For the variant TINW, the enrichment ratio is not above 0.25. As for GLTV, the figure is 5.07; as for LAAG, not above 0.25; as for PLEI, not above 0.25.

Consider WRSL, for which the enrichment ratio was not above 0.25.

With GHTP, the enrichment ratio is not above 0.25. Consider ERHR, for which the enrichment ratio is not above 0.25. Consider TPTT, for which the enrichment ratio is not above 0.25.

QFNG: the enrichment ratio was not above 0.25.

For the variant NRAG, the enrichment ratio was not above 0.25. On to SIFR, for which the enrichment ratio was determined as 1.77. As for EYSC, the figure is not above 0.25; as for VTLS, 5.55.

In the case of GDKL, the enrichment ratio is not above 0.25. As for GENQ, the figure is not above 0.25.

For the variant NCKD, the enrichment ratio was not above 0.25. As for YNIG, the figure is not above 0.25; as for FCMM, 8.52. As for VIDP, the figure is not above 0.25. As for TNQE, the figure is not above 0.25; as for EPWM, not above 0.25. On to HTIR, for which the enrichment ratio was not above 0.25. As for HDML, the figure is not above 0.25; as for WRLH, not above 0.25.

SDTW: the enrichment ratio was not above 0.25. As for AHWV, the figure is not above 0.25; as for YTMN, not above 0.25. As for FVAL, the figure is not above 0.25; as for LRWS, not above 0.25; as for VQQP, not above 0.25. For SMLA, the enrichment ratio came to 6.54. As for MFRT, the figure is not above 0.25; as for YDHF, not above 0.25. As for FEHM, the figure is not above 0.25. Regarding MYGD, the enrichment ratio was not above 0.25. As for FWYE, the figure is not above 0.25. As for NSGK, the figure is not above 0.25. Turning to KDPP, the enrichment ratio was not above 0.25. Consider GGLE, for which the enrichment ratio was not above 0.25. As for KAIC, the figure is not above 0.25. As for ECNF, the figure is not above 0.25.

With PMWW, the enrichment ratio was not above 0.25. As for YVVG, the figure is not above 0.25; as for PFWH, not above 0.25. As for NTCW, the figure is not above 0.25; as for EFWV, not above 0.25; as for PIQR, not above 0.25. As for GNYP, the figure is not above 0.25; as for FIYA, not above 0.25; as for MVAF, 8.08. Turning to IGPF, the enrichment ratio is not above 0.25.

Regarding AEFN, the enrichment ratio was not above 0.25. As for DAAK, the enrichment ratio is not above 0.25. As for FSFM, the figure is not above 0.25; as for FTMM, 12.1; as for ADHI, not above 0.25. As for TRKQ, the figure is not above 0.25; as for GVGM, not above 0.25.

For FCER, the enrichment ratio was not above 0.25. As for DVAL, the figure is not above 0.25; as for IAPM, not above 0.25. As for WTDW, the figure is not above 0.25; as for KHRW, not above 0.25. As for MITC, the figure is not above 0.25; as for PSIP, not above 0.25; as for VNPD, not above 0.25.

Consider TCNA, for which the enrichment ratio amounted to 9.43. As for HNFQ, the figure is not above 0.25; as for IADK, not above 0.25. As for SVVM, the figure is 0.559.

In the case of DMIE, the enrichment ratio was not above 0.25. As for AYHY, the figure is not above 0.25.

Regarding SRQG, the enrichment ratio was not above 0.25.

With IYLS, the enrichment ratio was not above 0.25. VPWN: the enrichment ratio is not above 0.25. As for SLGP, the figure is not above 0.25; as for PLQR, not above 0.25; as for PGNH, not above 0.25. As for KECP, the figure is not above 0.25; as for IDAP, not above 0.25; as for KPLC, not above 0.25. As for LIKW, the figure is not above 0.25; as for SDIT, not above 0.25.

Regarding NHTV, the enrichment ratio was not above 0.25.

Take NRCA: the enrichment ratio is not above 0.25.

Consider ELPD, for which the enrichment ratio is not above 0.25. Regarding IVIL, the enrichment ratio was not above 0.25. On to EFER, for which the enrichment ratio is not above 0.25. As for RGRT, the figure is not above 0.25; as for FWQD, not above 0.25; as for RKEM, not above 0.25. As for YRIV, the figure is not above 0.25. As for PMQS, the figure is not above 0.25. With GKFR, the enrichment ratio is not above 0.25. Regarding TYWM, the enrichment ratio was not above 0.25. As for KQRS, the figure is not above 0.25; as for HRIQ, not above 0.25. As for NCLF, the figure is not above 0.25. As to LQRR, the enrichment ratio is not above 0.25. As for PMMD, the figure is not above 0.25; as for RQWM, not above 0.25. As for WHLP, the figure is not above 0.25; as for PHPQ, not above 0.25. As for VSRP, the figure is not above 0.25; as for ISSA, not above 0.25. With RLTS, the enrichment ratio is not above 0.25.

For the variant LECC, the enrichment ratio came out at 0.75. As for NCGP, the figure is not above 0.25.

In the case of TQVW, the enrichment ratio was not above 0.25. With ALIY, the enrichment ratio is not above 0.25.

Turning to ANSY, the enrichment ratio worked out at 9.49.

YEDQ: the enrichment ratio is not above 0.25. As for DWFH, the figure is not above 0.25; as for WNLW, not above 0.25. As for GQDQ, the figure is not above 0.25; as for EEEC, not above 0.25; as for FIWL, not above 0.25. As for YWIR, the figure is not above 0.25; as for IVIN, not above 0.25. With GQQH, the enrichment ratio came out at 2.74.

For the variant YWRT, the enrichment ratio was not above 0.25. As for FYCD, the figure is not above 0.25. Consider MLVI, for which the enrichment ratio was not above 0.25. As for DQTK, the figure is 8.07. Consider PIAE, for which the enrichment ratio is not above 0.25.

PWTC: the enrichment ratio was not above 0.25.

With SHKG, the enrichment ratio is not above 0.25. As for REPQ, the figure is not above 0.25.

On to WTAY, for which the enrichment ratio is not above 0.25. As for LFGK, the figure is not above 0.25; as for PPGG, not above 0.25. Regarding NMVV, the enrichment ratio is not above 0.25.

IGFI: the enrichment ratio was not above 0.25. As for DWTR, the figure is not above 0.25; as for HLCY, not above 0.25.

Take GFVC: the enrichment ratio is not above 0.25. As for LMGR, the figure is not above 0.25; as for GQVP, not above 0.25. As to HRSG, the enrichment ratio is not above 0.25. With EMWP, the enrichment ratio is not above 0.25.
